Assay results: the RNAGym collection of RNA variant scans (doi:10.7554/elife.90254)
The source gives no read counts; variants with many changes may rest on few reads.

B1: LINE1-mini (parent)
chain: GGCAGAGCUCAACACAGCGUGGCAAAGUGGCUGUGGCUAGACUGCC

Variants of: B1
Assay: self-cleavage, relative activity (ratio to wild type); higher = more cleavage; in vitro, sequencing; the parent is a self-cleaving ribozyme
In the case of GGCAGAGCUCAACACAGCGUGGUAAGGUGGCUAUGGCUAGACUGCC [C23U A26G G33A], the self-cleavage is reported as 0.08. GGAAGAGCUCAACACAGGGUGGCAAAGUCGCUCUGGCUAUACUGCC [C3A C18G G29C G33C G40U] showed a self-cleavage of 0.11. GGCAGCGUUUAACACAGUGUGGCAAAUUGGCUGUGGCUAGACUGCC [A6C C8U C10U C18U G27U] showed a self-cleavage of 0.04. GGCAGAGCUCAACCCGGCGUGGCAAAGUUGCUAUGGCUAGAUUGCC [A14C A16G G29U G33A C42U] showed a self-cleavage of 0.02. Variant UGAAGAUCAAAACACAGCGUGGCAAAGUGGCACUGGCUAGACUGCC [G1U C3A G7U U9A C10A U32A G33C] has a self-cleavage of 0.14. In the case of GGCAGAACUCAACACAGCGUGGCAUAGUGGCUGUGGCUAGACGUAC [G7A A25U U43G G44U C45A], the self-cleavage is reported as 0.12. GUCAGCGCUCAACACAGCGUGGCAAAGUGGCUGUGGCUAGAGUGCC [G2U A6C C42G] gave a self-cleavage of 0.01. UGCAGAGCACAACACAGCGUCGCAAAGUGGCUGUGGCUAGACUGCC [G1U U9A G21C] gave a self-cleavage of 0.02. GGAAGAGCUCAACACAGCAUGGCAAAGGGGCUGUGCCUCGACCGCC [C3A G19A U28G G36C A39C U43C] gave a self-cleavage of 0.13. In the case of GGCAGAGCUCAACACAGCGUGGCAAAGUGGCUGUGGCUAGAAAGCG [C42A U43A C46G], the self-cleavage is reported as 0.11. GGUAGAGCUGAACAUAGCGUGGCAAAGUGGCUGUGGCUAGACUGCG [C3U C10G C15U C46G] gave a self-cleavage of 0.03. For GGCAGAGAUCAAGACAGCGUGGCAAAGUGGGUGUGGCUAGACUGCC [C8A C13G C31G], the self-cleavage was 0.18. Work on GGCAGAGCUGAAGACAGCGUUGCAAAGUGGCUAUGGCCAGACUGCC [C10G C13G G21U G33A U38C] yielded a self-cleavage of 0.02. Variant GGCAAAGAUCAACACAGAGUGGUAAAGUGGCUGUGGCUAGACUGCC [G5A C8A C18A C23U] has a self-cleavage of 0.14. In the case of GGCAGAGCUCAACACAGAGUGGCAGAGUGGCUGCUGCUAGACUGCC [C18A A25G U34C G35U], the self-cleavage is reported as 0.01. GGCAGAGCUCAACCCAGCGUGGCCAAGUGGCAGUGGCUAGACUGCC [A14C A24C U32A] gave a self-cleavage of 0.02. With GGCAGAGCUAAACACAGCGUGCCAAAGUCGCUGUGGCUAGACUGCC [C10A G22C G29C] the self-cleavage was 0.03. For GGCAGAGCUCAACAAAGCGUGGCAAAGUGGGUGCGGCUAGACUGCC [C15A C31G U34C], the self-cleavage was 0.03. Work on GCCAGAGCUCAACACAGAGUGGCAAAGUGGCUAUCGCUAGACUGCA [G2C C18A G33A G35C C46A] yielded a self-cleavage of 0.01. In the case of GGCAGAGGUCAACACAGCGUCAGAAAGUGGCUCUGGCUAGACUGCC [C8G G21C G22A C23G G33C], the self-cleavage is reported as 0.02. GGCAGAGCUCACCAUAGCGUGGCAAAGUGGCUGGGGCUAGACUGCC [A12C C15U U34G] gave a self-cleavage of 0.12. GGCAAAGCUCAACACAGCGUGGCCAAGUGGCUUUGGCUAGACUGCC [G5A A24C G33U] showed a self-cleavage of 0.03. Variant GGCAGAGCUCAGCACAGCGUGGCAAAGUGUCUAUGGCUAGAGUGCU [A12G G30U G33A C42G C46U] has a self-cleavage of 0.05. Variant GGCAGAGCACAACACAGCGUGACAAAGUGGCUUUGGCUAGACUGCG [U9A G22A G33U C46G] has a self-cleavage of 0.08. Variant GGCAGUGCUCAACACAGCGUGGCAAAGCGGCUGAAGCUAGACUGCC [A6U U28C U34A G35A] has a self-cleavage of 0.1. For GGCAGAGCUCACAACAGAGUGGCAAAGUGGCGGUGGCUAGACUGCC [A12C C13A C18A U32G], the self-cleavage was 0.02. GGCAGAGCUCAACUCAGCGUGACAAAGUGGCUGAGGCUAGACUGAC [A14U G22A U34A C45A] showed a self-cleavage of 0.07. With GGCAGAGCUCAAAACAGCUUGGCAUUGUGUCUGUGGCUAGACUGGC [C13A G19U A25U A26U G30U C45G] the self-cleavage was 0.01. Variant GGCAGAGCUCAACACCGCGUGGCACAGUGGCGGUGGCUAGACUGCC [A16C A25C U32G] has a self-cleavage of 0.24. GACAGAGCUCAACGGAGCGUGGCAACGUGGCUGUGGCUAGACUGCC [G2A A14G C15G A26C] showed a self-cleavage of 0.08. Variant GGCAGAGCUCAACACAGCGUGGCAAAGUGUCUGUGGCUAGCCUGAC [G30U A41C C45A] has a self-cleavage of 0.02. GCCAGAGUUCAACACAGCGUGGCAAAAUGGCUGUGCCUAGACUCCC [G2C C8U G27A G36C G44C] gave a self-cleavage of 0.01. Variant GGCAGAGGUCAACACAGCGUGGCAAAGUGGCUGUGGCUUGUCUGCC [C8G A39U A41U] has a self-cleavage of 0.19. Variant GGCAGAGCUCAACACAGCGUGGCAAACUGGCUGUGGAUAGACGGCC [G27C C37A U43G] has a self-cleavage of 0.21. In the case of GGCAGAGCUAAACACUGCGUGGCAAAGUGGCUGUGGCUAAACUGCA [C10A A16U G40A C46A], the self-cleavage is reported as 0.1. GGCAGAGCUCAACACAGCGUGGCAAAGUGACUUUGGCUAGACAGCC [G30A G33U U43A] gave a self-cleavage of 0. Work on GGCAGAGCUGAACACAGCGUGGCAAAGUUGCUGUGGCUAGGCUGUC [C10G G29U A41G C45U] yielded a self-cleavage of 0.04. In the case of AGCAGAGCUCAACACAGCGAGGCAAAGCGGCUGUGGCUAGACUGCC [G1A U20A U28C], the self-cleavage is reported as 0.11. In the case of GGCAGACCUCAACACAGCGUGGUAAAGUGGCUGUGGCUUGACUGCC [G7C C23U A39U], the self-cleavage is reported as 0.1. Work on GGCAGAGCUCAACACAGCGUGGUAAAGUGGCUGUGGUUACACUGCC [C23U C37U G40C] yielded a self-cleavage of 0.04. Variant GGCAGUGUUCAACAAAGCGUGGCAAAGUGGCUGUGGCUAGACUGUC [A6U C8U C15A C45U] has a self-cleavage of 0.12. GGCAGCGCUCAACCCAGCCUGGCAAAGUGGCUGUGGCUAGACUGCC [A6C A14C G19C] gave a self-cleavage of 0.01. In the case of GUCAGAGCUCAACACAGCGUGGCGAAGUGACUGUGGCUAUACUGCC [G2U A24G G30A G40U], the self-cleavage is reported as 0.19. Work on GGCAGAGCUCAACACAGCGUGGCAAAGUCCCUGUGGCUAGACCGUC [G29C G30C U43C C45U] yielded a self-cleavage of 0.03. GGCAGAGAUCAACACGGCGUGGCAAAGUGGCUGUGGCUAGACUGAC [C8A A16G C45A] gave a self-cleavage of 0.18. GCCAGAGCUCAACACAGCGUGGCCAAGUGGCUGUGGCCAGACUGCC [G2C A24C U38C] gave a self-cleavage of 0.04. With GUCAGGGCACAACACAUCGUGGCAAAGUUGCUGUGGCUAGACUGUC [G2U A6G U9A G17U G29U C45U] the self-cleavage was 0.03. Work on GGCAGAGCUCAACACAGCGUGAUAAAGUGGUUGUGGCUAGACUGCC [G22A C23U C31U] yielded a self-cleavage of 0.91. With GUCAGAGCUCUACACAGCGUGGCAAAGUGGCUGUGGCUUGACUGCC [G2U A11U A39U] the self-cleavage was 0.02. Variant GGCAGAGCUCAACACAGAGUGGCAAAGAGGCUGUGGCGAGACUGCC [C18A U28A U38G] has a self-cleavage of 0.03. For GGUAGAGCUCAACUAAGCGUGGCAAAGUGGCUGUGGCUAGACUGCC [C3U A14U C15A], the self-cleavage was 0.37. Variant GGCAGCGAUCAACACAGCGUGGCAAAGGGGCUGUGGCUGGACUGCC [A6C C8A U28G A39G] has a self-cleavage of 0.05. GCCAGAGCUCAACAGAGCGUGGCAAAGUGGCUGUGGCUAGACUGGC [G2C C15G C45G] gave a self-cleavage of 0.01. With GCAAGAGCUCAACACACAGUGACAAAGUGGCUGUGGCUAGACUGCC [G2C C3A G17C C18A G22A] the self-cleavage was 0.04. CACAGAGCUCAAAACAGCGUGGCAGAGUGGCUGUGGCUAGACUGCC [G1C G2A C13A A25G] gave a self-cleavage of 0.03. Variant GGUAGAGCUCAAAACAGCGUGGCAAAGGGGCUGGGGCUAGACUGCC [C3U C13A U28G U34G] has a self-cleavage of 0.01.
